Test results taken from publication PMC7771966.

Biological target: glutathione S-transferase-calreticulin (GST-CRT) (UniProt P15253)
Assay: pull-down; GST-CRT or GST-CRT-Y109A on glutathione beads, 16 h at 4 C with lysate (MNT: 20 mM MES, 100 mM NaCl, 30 mM Tris pH 7.5, 0.5% Triton X-100, protease inhibitors, 20 mM NEM) of ALG6-/-, ALG6/UGGT1-/- or ALG6/UGGT2-/- HEK293-EBNA1-6E cells treated with 500 uM DNJ for 14 h; immunoblot; percent reglucosylation = (GST-CRT lane minus Y109A lane) / total in whole cell lysate x 100

UniProt P15253, sequence (P15253 18-418): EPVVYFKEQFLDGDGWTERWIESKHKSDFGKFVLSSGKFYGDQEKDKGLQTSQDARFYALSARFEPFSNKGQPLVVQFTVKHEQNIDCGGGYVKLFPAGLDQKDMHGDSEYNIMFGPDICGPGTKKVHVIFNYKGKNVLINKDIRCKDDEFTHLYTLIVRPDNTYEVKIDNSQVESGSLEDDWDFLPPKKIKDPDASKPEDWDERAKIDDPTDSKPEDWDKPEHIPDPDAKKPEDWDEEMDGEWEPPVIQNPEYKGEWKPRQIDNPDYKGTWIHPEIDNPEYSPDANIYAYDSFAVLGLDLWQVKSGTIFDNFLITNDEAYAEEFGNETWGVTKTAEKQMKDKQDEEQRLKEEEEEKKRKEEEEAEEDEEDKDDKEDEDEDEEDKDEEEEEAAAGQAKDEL

Which percent reglucosylation (bound by GST-CRT minus GST-CRT-Y109A, of the total in the lysate), ALG6-/- cells does the source give for “cation-independent mannose-6-phosphate receptor (CI-M6PR) (a stretch of the chain, sequence left out) (receptor; monoglucosylated N-glycans (reglucosylated by the UGGTs; sites not stated))” here?
The percent reglucosylation (bound by GST-CRT minus GST-CRT-Y109A, of the total in the lysate), ALG6-/- cells was 10%.
